Data as given in a compilation of properties of binary mixtures (doi:10.1016/j.molliq.2022.121069).
The densities may have been worked out from excess volumes.

Experiment: xn = mol fraction of the nth substance listed
Conditions: 101.3 kPa

With `CCCC[N+](CCCC)(CCCC)CCCC.[Cl-]` + CNCCO the mass density (293.15 K, x1 = 0.111) was 940.3 kg/m3, the mass density (293.15 K, x1 = 0.1441) was 939.6 kg/m3 and the mass density (298.15 K, x1 = 0.1441) was 936.2 kg/m3. It also gave a mass density (303.15 K, x1 = 0.091) of 932.9 kg/m3, a mass density (303.15 K, x1 = 0.111) of 933.3 kg/m3 and a mass density (308.15 K, x1 = 0.091) of 929.3 kg/m3. The mass density (308.15 K, x1 = 0.111) was 929.9 kg/m3, the mass density (313.15 K, x1 = 0.091) was 925.7 kg/m3 and the mass density (313.15 K, x1 = 0.111) was 926.4 kg/m3. For the same compound, the mass density (318.15 K, x1 = 0.111) was 922.9 kg/m3, the mass density (318.15 K, x1 = 0.1441) was 922.5 kg/m3 and the mass density (323.15 K, x1 = 0.091) was 918.6 kg/m3. The mass density (323.15 K, x1 = 0.111) was 919.4 kg/m3, the mass density (323.15 K, x1 = 0.1441) was 919.1 kg/m3 and the mass density (328.15 K, x1 = 0.091) was 915 kg/m3. The mass density (328.15 K, x1 = 0.1441) was 915.6 kg/m3, the mass density (333.15 K, x1 = 0.091) was 911.4 kg/m3 and the mass density (333.15 K, x1 = 0.111) was 912.4 kg/m3. The mass density (333.15 K, x1 = 0.1441) was 912.2 kg/m3.
For `CC[N+](CC)(CC)CC.[Cl-]` + CNCCO, the mass density (293.15 K, x1 = 0.0914) was 953.8 kg/m3, the mass density (293.15 K, x1 = 0.1114) was 956 kg/m3 and the mass density (298.15 K, x1 = 0.0914) was 950.2 kg/m3. The mass density (298.15 K, x1 = 0.1114) was 952.4 kg/m3, the mass density (298.15 K, x1 = 0.1413) was 955.5 kg/m3 and the mass density (303.15 K, x1 = 0.0914) was 946.7 kg/m3. It also gave a mass density (303.15 K, x1 = 0.1413) of 952 kg/m3, a mass density (308.15 K, x1 = 0.1114) of 945.3 kg/m3 and a mass density (308.15 K, x1 = 0.1413) of 948.5 kg/m3. For the same compound, the mass density (313.15 K, x1 = 0.0914) was 939.5 kg/m3, the mass density (313.15 K, x1 = 0.1114) was 941.8 kg/m3 and the mass density (318.15 K, x1 = 0.0914) was 935.9 kg/m3. For the same compound, the mass density (318.15 K, x1 = 0.1114) was 938.2 kg/m3, the mass density (323.15 K, x1 = 0.0914) was 932.3 kg/m3 and the mass density (328.15 K, x1 = 0.1114) was 931.1 kg/m3. It also gave a mass density (328.15 K, x1 = 0.1413) of 934.6 kg/m3, a mass density (333.15 K, x1 = 0.0914) of 923 kg/m3 and a mass density (333.15 K, x1 = 0.1114) of 927.6 kg/m3. The mass density (333.15 K, x1 = 0.1413) was 931.1 kg/m3.
